Among the data in publication PMC3749138 are binding values, retold here.

Protein sequences, listed by entry. Tags and fused reporters are not part of them.
UniProt P06730: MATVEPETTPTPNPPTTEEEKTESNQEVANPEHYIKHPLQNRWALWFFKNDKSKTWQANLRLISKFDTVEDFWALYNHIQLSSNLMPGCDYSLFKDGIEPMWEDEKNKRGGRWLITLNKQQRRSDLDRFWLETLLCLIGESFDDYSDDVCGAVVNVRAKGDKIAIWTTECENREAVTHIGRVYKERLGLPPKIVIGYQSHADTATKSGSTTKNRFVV
UniProt O60573: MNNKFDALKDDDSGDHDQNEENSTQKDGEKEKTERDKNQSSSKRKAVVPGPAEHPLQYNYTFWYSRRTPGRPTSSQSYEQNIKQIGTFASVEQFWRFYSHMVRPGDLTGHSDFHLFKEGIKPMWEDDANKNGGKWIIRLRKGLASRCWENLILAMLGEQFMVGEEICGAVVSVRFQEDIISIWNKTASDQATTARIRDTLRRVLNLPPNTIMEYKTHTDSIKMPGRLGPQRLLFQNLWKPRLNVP

Changes are numbered by the printed parent chain. No constants are given. Whether binding was seen depends on the method and setting. Binding seen in cells or lysates may run through a third protein. Some entries that bind do so weakly or less than the wild type. Sequences can lack the tags named with a protein.

Assay [1] concerns the target T1, GFP-4E-T Y55A VW60/61AA (human) (UniProt Q9NRA8).
T1 sequence: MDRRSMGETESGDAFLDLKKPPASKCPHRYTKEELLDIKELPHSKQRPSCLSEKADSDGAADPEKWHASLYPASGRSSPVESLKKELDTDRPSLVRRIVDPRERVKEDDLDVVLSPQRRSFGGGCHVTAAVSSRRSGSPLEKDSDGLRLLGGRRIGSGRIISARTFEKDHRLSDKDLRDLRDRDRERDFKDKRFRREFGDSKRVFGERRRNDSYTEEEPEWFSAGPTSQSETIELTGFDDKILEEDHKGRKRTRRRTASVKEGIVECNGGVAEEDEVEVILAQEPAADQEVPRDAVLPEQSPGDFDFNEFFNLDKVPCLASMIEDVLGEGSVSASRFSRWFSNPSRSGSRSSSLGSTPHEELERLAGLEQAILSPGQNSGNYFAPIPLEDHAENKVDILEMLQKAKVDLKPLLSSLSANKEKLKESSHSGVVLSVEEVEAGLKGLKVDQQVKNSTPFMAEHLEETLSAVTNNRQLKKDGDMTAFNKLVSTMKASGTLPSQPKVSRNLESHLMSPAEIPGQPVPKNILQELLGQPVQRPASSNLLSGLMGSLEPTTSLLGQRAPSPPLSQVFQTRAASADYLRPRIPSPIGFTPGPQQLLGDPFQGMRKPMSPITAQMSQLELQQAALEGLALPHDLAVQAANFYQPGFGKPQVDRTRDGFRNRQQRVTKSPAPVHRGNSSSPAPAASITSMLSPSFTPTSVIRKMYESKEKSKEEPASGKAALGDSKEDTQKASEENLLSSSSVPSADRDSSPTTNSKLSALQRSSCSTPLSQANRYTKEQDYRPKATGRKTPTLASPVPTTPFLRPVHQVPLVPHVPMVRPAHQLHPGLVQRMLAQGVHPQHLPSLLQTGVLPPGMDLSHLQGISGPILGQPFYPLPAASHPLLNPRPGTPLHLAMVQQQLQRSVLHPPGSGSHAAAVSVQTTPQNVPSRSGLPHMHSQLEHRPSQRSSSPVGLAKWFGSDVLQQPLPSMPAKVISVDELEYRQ
In words: pull-down; GFP-Trap magnetic beads with 1 mg lysate of cells transfected with GFP-4E-T, NET buffer (50 mM Tris-HCl pH 7.5, 150 mM NaCl, 1 mM EDTA, 0.5% Nonidet P-40, 0.25% gelatin), 1.25 h at 4°C; western blotting with eIF4E1, eIF4E2 and 4E-T antibodies. On the technique in general: A western blot detects proteins with antibodies after separation by electrophoresis.

The target in assay [2] is T2, GFP-4E-T (human eIF4E-transporter, wild type) (human) (UniProt Q9NRA8).
T2 sequence: T1 sequence with A55Y, A60V, A61W
The description is as above.

As to “eIF4E1 (endogenous) (from UniProt P06730 1-217)”, the figures for the binding result in assay [1] and in assay [2] were “no binding” and “binds”, respectively.
The matching figures for “eIF4E2 (endogenous) (from UniProt O60573 1-245)”: “no binding” and “binds”.
